# Experimental data: paper PMC12136788
# The other results are listed elsewhere or left out.
# T1: UNK ZnF1-3 (human, UniProt Q9C0B0 31-174)
# T1 sequence: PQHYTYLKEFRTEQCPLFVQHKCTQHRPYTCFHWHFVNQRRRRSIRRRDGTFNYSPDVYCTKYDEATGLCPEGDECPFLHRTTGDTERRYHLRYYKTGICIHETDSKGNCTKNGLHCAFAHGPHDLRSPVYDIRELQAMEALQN
# B1: chr1:16667403:16667404:+_ENSMUSG00000025940_ENSMUST00000065373|mus_hu|FALSE|FALSE (ssRNA)
# RNA: GGGAGUUCUACAGUCCGACGAUCUGUCAUAACCCAUUAGAUGGAUAUAGUCUUCACGGUUUGGAAAGAGCACUGGAUUAACUAACAGUGAUUUUGUUUUAGCAUAAAAUGUGGUAAAUACAUGUUUAGCAUCUGGAAUCUUCACAACAGAGGAUUGAGCAUCA
# B2: chr8:92090715:92090716:+_ENSG00000155100_ENST00000285420|hu_hu|motif|central (ssRNA)
# RNA: GGGAGUUCUACAGUCCGACGAUCUUUCAGUUGAUCUUCAAUGGCUUUAUACAUACAGUGGCCAUCAGAUGGAAUCUGUUUAAUUUCGGACUGUCUAGCUGCCAAUAUUUGAGCAAGUUUCUCACUUUCCAUAUGUCUGGCUCCCAACAGAGGAUUGAGCAUCA
# B3: chr22:35691198:35691199:+_ENSG00000100281_ENST00000216106|hu_mus|motif|central (ssRNA)
# RNA: GGGAGUUCUACAGUCCGACGAUCACAGUCCUGUGAGAAGCUUAGCUGUGACAGCAGUCGGGCUAUGGGAAGGAGUUCCCGGGGAUGCCAGCUGGCUACAUGGUCCCCAAAGGUUUACUGUGAUGCUGCCUCGUUCCAUCCAGGCAACAGAGGAUUGAGCAUCA
# B4: chr1:60041781:60041782:+_ENSMUSG00000041040_ENSMUST00000036540|mus_hu|mus_mus_mus_hu_False|1_58 (ssRNA)
# RNA: GGGAGUUCUACAGUCCGACGAUCAAGUUUACAAUAGUAAAGUAAAUGCAGUAGUGGCAAAUUUUCUUUUAUUUUCCUUCCUAAAAGAAAAUCUUUAUAACCCAGUCCUAGUCUUGGACAUAGUGAAAGCUAUAAAUGCCACUGCAACAGAGGAUUGAGCAUCA
# B5: 135330265_135330946_5819_CDS_ENSG00000155561_ENST00000285968|human|control|control (ssRNA)
# RNA: GGGAGUUCUACAGUCCGACGAUCCCCACUUCUAAAAUCUAGAUUGGUUUCUGAGGCGAAGGAAUCUUGCAGUCUUCUGCUUUUAAACAAGGUUCUCGAGGCAAAUAAGGAAUCUUGAGAAUCCGUGGGCAUGCAAUGUAACAACAACAGAGGAUUGAGCAUCA
# B6: chr4:24541891:24541892:-_ENSG00000109606_ENST00000336812|perfect_dup|motif|central (ssRNA)
# RNA: GGGAGUUCUACAGUCCGACGAUCGGAUCCCAAUUCAGUCAGAUCUCCAUCAUCAUUUAAAGCAGCCAAAUAAUUCAAAAGUUCGGGGGCUCUCAUCAGAGUUUCAGGAGCUGGUGGGUCCAUAAAAUCAAAGUGUACCAAGUCCAACAGAGGAUUGAGCAUCA
# B7: chr2:55200753:55200754:-_ENSG00000115310_ENST00000317610|hu_mus|motif|central (ssRNA)
# RNA: GGGAGUUCUACAGUCCGACGAUCUUGGAUUUUGGCCAUGGCAUCCUUAACGCUCUUGUUUGCAAGUCCUAGAUAAUGAUCGGUCUGCGCCUGAUGCCGUUCAUAUAUAACAGGAAUACUGAAGAGUGAGAUCAGAGCUAAAAUCAACAGAGGAUUGAGCAUCA
# B8: chr7:151048522:151048523:+_ENSG00000013374_ENST00000566856|hu_mus|hu_hu_hu_mus_True|78_98 (ssRNA)
# RNA: GGGAGUUCUACAGUCCGACGAUCCUGUUUCUUAUUUAUGACAAUUUUGAUGUAAUUUUCUUGAAGUCCGAAAGUUUCAGCUAUUUGACACCUCAGGUCUCUACCAGUGACAUGCAAGCGGGUCUCCAACAAGCUUUUCUUAUCCAACAGAGGAUUGAGCAUCA
# B9: chr18:33362079:33362080:-_ENSMUSG00000024378_ENSMUST00000025236|mus_mus|FALSE|FALSE (ssRNA)
# RNA: GGGAGUUCUACAGUCCGACGAUCUGACCUGCCUGCCUGCCAUUAUUGCCAGAGCUCACGUUACUCCAGAUCUGCCAACACGGAAACACAAACCCACCCACCUUCCCACCAACCAACCAAACGAAGGAAAGGGAAACACGUAAGCAACAGAGGAUUGAGCAUCA
# B10: chr3:196509625:196509626:+_ENSG00000180370_ENST00000327134|hu_hu|FALSE|FALSE (ssRNA)
# RNA: GGGAGUUCUACAGUCCGACGAUCAACAGAGGGCAAAGGUUUCAAACUGUGAUUGGCUGACAAAGGGUCUUUGCCUCCAGUGCUAAAGAUGGUGCUGCUCAUUCGCACAGGAGGUGCUGGAGGCUUAUCUUCCAGUUCUCCGUUCAACAGAGGAUUGAGCAUCA
# B11: chr4:76721835:76721836:+_ENSG00000138768_ENST00000264904|hu_mus|hu_hu_hu_mus_True|38_78 (ssRNA)
# RNA: GGGAGUUCUACAGUCCGACGAUCGUUUGGCUGGGGUUUCUGAGACGCUCUGGAAUAAACUCAUGUUUUGCUAAUAAAUCCUAGUUUCUCUAUGAAAUCUCUUUGCCCAAUCCUCUUCUCUAUUAGUUGCUUUAGUUUCUCUUUCAACAGAGGAUUGAGCAUCA
# B12: chr15:76912013:76912014:-_ENSMUSG00000033565_ENSMUST00000166610|mus_hu|FALSE|FALSE (ssRNA)
# RNA: GGGAGUUCUACAGUCCGACGAUCUUCUCAGUGUUGACACUGAAAACCAAAGACCCUUUCAUAAAAAGCAGAACUCCAUUUAUUCUUUCUUAGAAAAGGGAGCUGGAGGAAGCGGUGUUAAACACCAUCCCUGGAAAUGCAGCACAACAGAGGAUUGAGCAUCA
# B13: chr11:72491332:72491333:+_ENSMUSG00000020794_ENSMUST00000021148|perfect_dup|FALSE|FALSE (ssRNA)
# RNA: GGGAGUUCUACAGUCCGACGAUCAGCAUCUACAUUUGCAGGUGAGUCUCCAUUAGGAUCUGCCAGCAUAGAAAUGACACUAAUCAUGAUGGUUUCCACAGUAUGGAUAGGUAACCAGCGUUCCUCUGGCUUCUCAUAACCAUACAACAGAGGAUUGAGCAUCA
# B14: 14247351_14250109_1196_CDS_ENSMUSG00000039219_ENSMUST00000039538|mouse|control|control (ssRNA)
# RNA: GGGAGUUCUACAGUCCGACGAUCAUCCUCCAUGAACUUAUACAGCUGCUGAAGAAAGUUCUCCCUUUCCUCUGGAAAUGGUUCUAUUUCUUCCUCUUCUUCGCUGCUGUUAUCUUCUUUCUCUUUUUCAUCAUCUUCCUCCUCCAACAGAGGAUUGAGCAUCA
# B15: 141319563_141319683_2449_3pUTR_ENSMUSG00000040697_ENSMUST00000038014|mouse|control|control (ssRNA)
# RNA: GGGAGUUCUACAGUCCGACGAUCCCUCGGGAGGAGUCAGGGUCACAGGAGGCCACAGUCUCCUCAUCCACUGUCUUUAGUGGCUUGAAAAGGCAGAAAUACUUCUUGUGACCGUUCAGGGCCAGCACGUAGCCAGUGUAGUCUCAACAGAGGAUUGAGCAUCA
# B16: 20976649_20976769_4193_CDS_ENSMUSG00000033382_ENSMUST00000025177|mouse|control|control (ssRNA)
# RNA: GGGAGUUCUACAGUCCGACGAUCCGAUAACUUGGCGAAUACUCUUGGAGUUCCAAGGUUAUAAACGCCUGUAUGAACAAAGCAUGCCUUCAGCUGCAAACUGUGCAUCUCUUGGCUUUUCAGCUGGAGCUUAUACUGUGUCUGCAACAGAGGAUUGAGCAUCA
# B17: 42913603_42913723_138_3pUTR_ENSMUSG00000059495_ENSMUST00000165665|mouse|control|control (ssRNA)
# RNA: GGGAGUUCUACAGUCCGACGAUCGUAGGACGGGAACCGGGAUCCCUCCGGAGCUGGGGCAGGAUCGGCUCAGGGACGGGCGUCGGCUUCGGUCCCGAGUCGGCGGGGCCCGGCCCUCGGGUCCCCGCUCUAUCUGGGGCUGCGCAACAGAGGAUUGAGCAUCA
# B18: chr14:67423352:67423353:-_ENSMUSG00000022048_ENSMUST00000022629|mus_mus|FALSE|FALSE (ssRNA)
# RNA: GGGAGUUCUACAGUCCGACGAUCAAACUAGGAUAGCACAAAACUAUGGUGGUGGGGGCAAAACUAAGAUCUGCUCAGGCUAUGCCUGAGACCAAACUGGGUUGCCUGGCUUUAAGAGCAGACAGAGUUAAGAGGAAAAAAAAACAACAGAGGAUUGAGCAUCA
# B19: chr5:21408736:21408737:-_ENSMUSG00000042453_ENSMUST00000161356|mus_hu|mus_mus_mus_hu_False|78_98 (ssRNA)
# RNA: GGGAGUUCUACAGUCCGACGAUCGUUGACAGAGUUGUAAAUGGUGGCUUCAUGGAACUGGAACGGGGAGCAGCCAAUGCUGUUAGAAGAGGAAGGAAGGCACUGGGUCUGUACGAGCUGCCAGGAAUCCGAUCUUGCAUCCUUCAACAGAGGAUUGAGCAUCA
# B20: chr2:73747301:73747302:-_ENSMUSG00000018770_ENSMUST00000018914|mus_hu|motif|central (ssRNA)
# RNA: GGGAGUUCUACAGUCCGACGAUCAUAACCAAUGAUAAGGCUGCCAAAGACUGUUCCAAUACCAGCACCAGAACCAGCCACUCCGGCUGUUGCAGCACCUGCACCAAUAAAUUUGGCAGCAGUAUCAAUGUCUCUGCUGAUUGCCAACAGAGGAUUGAGCAUCA
# B21: chr15:43699750:43699751:-_ENSG00000067369_ENST00000382044|hu_mus|motif|central (ssRNA)
# RNA: GGGAGUUCUACAGUCCGACGAUCACACUUGAGCACCGAGGCUGGGCAUGAGGGGUCUGUCACCACCACAUCAAAUACCCCGGAAGCAAUGUCUUUGUUGUGGGCACUUGAAUGGUGCUGCUUCACAGAGGCUGCCCCUCCAGUCAACAGAGGAUUGAGCAUCA
# B22: 113335602_113338832_600_3pUTR_ENSMUSG00000079426_ENSMUST00000156898|mouse|control|control (ssRNA)
# RNA: GGGAGUUCUACAGUCCGACGAUCCCUUUGCAGACGCAGAGACACAGGGAGGCCGAGGGGAAGGCUGCGAGAUCCAGCUAGAUGUUUUAAAAAUUCUUGAGGAACUCCUCAGCUACGAUACGAGCCCGGGCAUUGACCGACAGCCAACAGAGGAUUGAGCAUCA
# Biological target: T1, UNK ZnF1-3
# Test: nsRBNS (natural sequence RNA bind-n-seq); RBNS binding buffer (assumed for nsRBNS): 25 mM Tris pH 7.5, 150 mM KCl, 3 mM MgCl2, 0.01% Triton X-100, 500 ug/ml BSA, 20 U/ml SUPERase-In, 4 C; UNK is unkempt and MSI1 is Musashi-1; names of the RNAs are library labels; protein concentration not given here; high values mean tight binding
row,Binder,binding signal
1,B1,0.749 enrichment R
2,B2,0.65 enrichment R
3,B3,1.1 enrichment R
4,B4,0.633 enrichment R
5,B5,0.951 enrichment R
6,B6,2.07 enrichment R
7,B7,1.27 enrichment R
8,B8,0.931 enrichment R
9,B9,1.96 enrichment R
10,B10,0.661 enrichment R
11,B11,0.39 enrichment R
12,B12,0.804 enrichment R
13,B13,1.17 enrichment R
14,B14,0.324 enrichment R
15,B15,0.688 enrichment R
16,B16,0.441 enrichment R
17,B17,0.641 enrichment R
18,B18,2.01 enrichment R
19,B19,2.13 enrichment R
20,B20,0.999 enrichment R
21,B21,0.97 enrichment R
22,B22,1.46 enrichment R
